# Measured values taken from PubChem BioAssay AID504466 (National Center for Advancing Translational Sciences (NCATS), 2011).
# About 4,200 (1.3%) of roughly 330,000 compounds were called active. This list was built around the results that the source calls inconclusive (neither active nor inactive); the mix of calls is not that of the screen. Calls follow the shape of the dose curve; as a rule, active = well fitted activation curve with a large enough effect; inconclusive = small, poorly fitted or top-dose-only effect; inactive = no such curve, though single readings can be large or run the other way. Potencies of inconclusive entries are doubtful fits and often do not repeat.
# Test: qHTS screen for small molecules that induce genotoxicity in human embryonic kidney (HEK293T) cells expressing luciferase-tagged ELG1; also: nearly all actives have a fitted effect of over 60% in size; as to activity change, positive = activation: % of control where 0% means no effect
# Details: HEK293T ELG1-luciferase reporter, luminescence, 16 h; series mostly up to 46 µM; activity change, positive = activation: at the top concentration
# In short: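 DMSO vehicle served as control against compound-treated ELG1-luciferase HEK293T cells; exposure lasted 16 hr at 37 °C and 5% CO2, followed by ONE-Glo luminescence detection after 30 min.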
# Potency is read from the fitted curve at half-maximal effect; tags tell the direction and shape of the fitted curve.
SMILES,Potency,"activity change, positive = activation"
Cc1c(Br)c([N+](=O)[O-])nn1C(C)C(=O)N1CCc2ccccc2C1 (stereo not given),"inconclusive: 16.4 µM [activator, partial curve]",–
Cc1ccc(S(=O)(=O)N2CCCC2C(=O)OCC(=O)Nc2ccc3c(c2)OCO3)cc1 (stereo not given),–,inactive: -2.63%
O=C(CSc1ncn[nH]1)c1ccc2c(c1)OCCO2,"inconclusive: 29.1 µM [activator, single point]",–
Cc1ccc(COC(=O)c2ccc3ccccc3n2)cc1,–,inactive: 1.56%
Nc1cc(-c2cccc([N+](=O)[O-])c2)[nH]n1,–,inactive: -3.03%
CCOc1ccc(NC(=O)c2ccccc2CO)cc1,"inconclusive: 20.6 µM [activator, single point]",–
COc1ccccc1C(=O)NCC(=O)OCC(=O)c1ccc2c(c1)-c1ccccc1C2,–,inactive: 7.23%
O=C(CCCOc1ccccc1)N1CCCCC1,active: 0.461 µM,–
Cc1cc(C)n2nc(SC(C)C(=O)N(C)C3CCCCC3)nc2n1 (stereo not given),–,inactive: -0.286%
COc1ccc(C(=O)N/N=C\c2ccoc2)cc1,"inconclusive: 29.1 µM [activator, partial curve, poor fit]",–
CCn1nnc(NC(=O)COc2ccc(C3CCCCC3)cc2)n1,"inconclusive: 32.6 µM [activator, single point]",–
Cc1ccc(-c2cc(C(=O)Nc3cccnc3)[nH]n2)c(O)c1C,active: 9.2 µM,–
C/C(=N/NC(=O)CN1CCN(Cc2ccccc2Cl)CC1)c1ccco1,–,inactive: -1.71%
Cc1ccc(S(=O)(=O)N2CCCCC2)cc1NC(=O)C1CC1,–,inactive: 0.844%
COc1cc(/C=C2\SC(=Nc3ccc(O)cc3)NC2=O)cc(OC)c1O,"inconclusive: 13 µM [activator, partial curve, poor fit]",–
O=C(c1ccco1)n1nc(-c2ccco2)nc1SCc1ccccc1,"inconclusive: 20.6 µM [activator, partial curve, poor fit]",–
CCn1nc(C(=O)OCC(=O)c2cc(C)n(Cc3cccs3)c2C)c2ccccc2c1=O,active: 18.4 µM,–
COc1cc(/C=N/NC(=Nc2ccc(C)cc2)c2nc3ccccc3s2)ccc1O,active: 2.59 µM,–
CCc1c(C)sc(NC(=O)c2cccs2)c1C(N)=O,active: 18.4 µM,–
Cn1c(=O)cc(OCCCC(=O)Nc2cccnc2)c2ccccc21,"inconclusive: 18.4 µM [activator, partial curve]",–
O=C(Nc1nc2c(F)cc(F)cc2s1)C1CCN(C(=O)c2ccc(F)cc2)CC1,"inconclusive: 16.4 µM [activator, single point]",–
O=C(NC1CCCCC1)c1ccc(-c2ccccc2[N+](=O)[O-])o1,active: 2.06 µM,–
N#C/C(=C\c1cccs1)Sc1nc2ccccc2s1,"inconclusive: 20.6 µM [activator, partial curve, poor fit]",–
Cc1ccc(CN2C3CCCC2CC(NC(=O)c2ccc(C)cc2)C3)cc1 (stereo not given),–,inactive: -4.36%
Cc1ccc(NC(=O)c2cc3ccccc3o2)cc1,"inconclusive: 10.3 µM [activator, partial curve]",–

SMILES,Potency,"activity change, positive = activation"
COC(=O)c1c(NC(C)=O)sc(C(=O)Nc2ccccc2F)c1C,"inconclusive: 23.1 µM [activator, partial curve, poor fit]",–
Cc1ccc(CSc2ccc(C(=O)N3CCOCC3)cc2[N+](=O)[O-])cc1,–,inactive: 2.67%
Nc1nc(CCOc2ccc(F)cc2)cs1,"inconclusive: 13 µM [activator, partial curve]",–
Cc1ccc2nc3sc(C(=O)N4CCOCC4)c(N)c3cc2c1,"inconclusive: 0.058 µM [activator, full curve, poor fit]",–
COc1cccc2cc(C(=O)c3ccccc3)oc12,"inconclusive: 20.6 µM [activator, single point]",–
COc1ccc2oc(C(=O)NCC(c3ccco3)N(C)C)c(C)c2c1 (stereo not given),"inconclusive: 23.1 µM [activator, single point]",–
Cc1cc(Cl)ccc1OCCCC(=O)N1CCOCC1,"inconclusive: 14.6 µM [activator, partial curve, poor fit]",–
COc1ccccc1NC(=O)Nc1ccc2c(c1)CCC2,active: 13 µM,–
CCOC(=O)c1cc(=O)n2[nH]c(-c3ccc(C)cc3)cc2n1,"inconclusive: 18.4 µM [activator, partial curve, poor fit]",–
Cc1cccc(Nc2ccc([N+](=O)[O-])cn2)c1,"inconclusive: 20.6 µM [activator, partial curve, poor fit]",–
CCCc1ccc(-c2cc(N)n[nH]2)cc1,active: 16.4 µM,–
O=c1cc(-c2ccc(O)c(O)c2)oc2ccc3ccccc3c12,active: 1.46 µM,–
O=C(CN1C(=O)NC2(CCCC2)C1=O)OCc1ccccc1F,–,inactive: 0.736%
CC(=O)c1cccc(NC(=O)c2cc(-c3cccs3)on2)c1,"inconclusive: 18.3 µM [activator, single point]",–
Cc1ccc(C)n1-c1ccc(C(=O)NCc2cccnc2)cc1,"inconclusive: 16.4 µM [activator, single point]",–
CC(C)(C)NC(=O)c1cccc(NC(=O)c2cccc(O)c2)c1,–,inactive: 9.23%
O=C(Nc1ccc(CN2CCOCC2)cc1)c1ccco1,"inconclusive: 9.2 µM [activator, partial curve]",–
COc1cccc(C(=O)CSc2nnc(-c3cc(OC)c(OC)c(OC)c3)o2)c1,–,inactive: -0.522%
c1ccc(Nc2cccc(Nc3ccccc3)c2)cc1,"inconclusive: 18.4 µM [activator, partial curve, poor fit]",–
CCOc1ccc(S(=O)(=O)N2CCCCC2)cc1NC(=O)CC1OC(=O)c2ccccc21 (stereo not given),–,inactive: 4.2%
CCCC(=O)Nc1nc2ccc(C(=O)OCC)cc2s1,active: 10.3 µM,–
COc1cc(NC(=S)NCCN2CCOCC2)cc(OC)c1,–,inactive: 1.09%
CCCCCc1cc(O)c2c(C)cc(=O)oc2c1,"inconclusive: 14.6 µM [activator, partial curve, poor fit]",–
Cc1nc2cc(NCc3nc4ccccc4n3Cc3ccccc3)ccc2n1C,"inconclusive: 2.06 µM [activator, full curve]",–
O=C(C#Cc1ccccc1)Nc1ccccc1F,–,inactive: 16.7%

SMILES,Potency,"activity change, positive = activation"
Cc1cc(C)c2nc(N3CCCC(C(=O)N4CCN(c5ncccn5)CC4)C3)sc2c1 (stereo not given),–,inactive: -22.6%
Cc1c(C(=O)C(=O)NCC2CCCO2)c2ccccc2n1C (stereo not given),–,inactive: 4.5%
CN(C(=O)c1cc(-c2ccc3c(c2)OCO3)on1)c1ccccc1,active: 18.3 µM,–
COc1ccc(C(=O)Nc2ccccc2C(=O)Nc2ccc(C(=O)O)cc2)cc1,"inconclusive: 23.1 µM [activator, single point]",–
O=C(CCc1nnc(-c2ccccc2)o1)NC1CCCCC1,"inconclusive: 14.6 µM [activator, partial curve, poor fit]",–
COCCNC(=O)C(=O)Nc1cc2c3c(c1)C(C)C(=O)N3CCC2 (stereo not given),"inconclusive: 29.1 µM [activator, partial curve, poor fit]",–
O=C(Nc1ccccc1)C(=O)Nc1ccccn1,"inconclusive: 2.06 µM [activator, single point]",–
CC(=O)c1cc2c(cc1NC(=O)CCC1CCCC1)OCO2,–,inactive: 3.34%
CCOc1ccc(OCc2ccc(C(=O)NN)o2)cc1,"inconclusive: 4.61 µM [activator, partial curve, poor fit]",–
O=C(N/N=C\c1cc2c(cc1Cl)OCO2)c1cccs1,"inconclusive: 23.1 µM [activator, partial curve]",–
CCCCCc1ccc(-c2ccc(/C=C/C(=O)O)cc2)nc1,"inconclusive: 3.66 µM [activator, partial curve, poor fit]",–
O=C(/C=C/c1ccco1)N1CCN(c2ncccn2)CC1,"inconclusive: 32.6 µM [activator, partial curve, poor fit]",–
C/C(=N\NC(=O)c1n[nH]c2c1CCC2)c1cccs1,"inconclusive: 0.651 µM [activator, partial curve, poor fit]",–
CCN(CC)C(=O)CSc1nnc(SCc2ccc(Cl)cc2)s1,–,inactive: -6.99%
O=C1N/C(=C\c2ccccc2)C(O)=C1C=NCc1ccccc1,"inconclusive: 29.1 µM [activator, partial curve, poor fit]",–
CCCCc1nc2cc(C(=O)N3CCC(O)CC3)ccc2o1,"inconclusive: 10.3 µM [activator, partial curve]",–
CCOC(=O)C1CCN(c2nnc(N3CCCC3=O)s2)CC1,"inconclusive: 20.6 µM [activator, partial curve]",–
O=C(CSc1nc2ccccc2o1)Nc1ccc(Cl)cc1,"inconclusive: 18.4 µM [activator, partial curve]",–
O=C(Cn1cccc1C(=O)c1ccccc1)NCc1ccccc1,"inconclusive: 4.61 µM [activator, single point]",–
CCOc1ccc(S(=O)(=O)NCc2ccncc2)cc1NC(=O)c1ccccc1,"inconclusive: 18.3 µM [activator, single point]",–
O=C(Cn1nnc(-c2ccccc2NC(=O)c2ccccc2F)n1)NC1CCCC1,"inconclusive: 25.9 µM [activator, partial curve, poor fit]",–
CCc1ccc(OCc2cnc(Cl)s2)cc1,"inconclusive: 20.6 µM [activator, partial curve, poor fit]",–
CCOC(=O)CSc1nc(C)c2cc(OC)ccc2n1,"inconclusive: 20.6 µM [activator, partial curve]",–
Cc1ccc(C(=O)CNc2ccc(F)cc2)cc1,"inconclusive: 20.6 µM [activator, partial curve, poor fit]",–
CCN(CC)C(=O)COc1ccc(-c2ccccc2)cc1,"inconclusive: 23.1 µM [activator, partial curve]",–
